Data on 45 compounds can be found in paper PMC4336329 (PLoS ONE, 2015).

Hit rate of the full screen: of about 310,000 compounds, about 2,200 (0.71%) showed an effect of 50% or more. Effects have a minus sign here. The list shows a part of the results.

For this test, the target named is human ether-à-go-go-related gene (hERG) potassium channel (human, UniProt Q12809). Briefly: primary screen, population patch clamp on CHO cells stably expressing hERG.
Sequence of human ether-à-go-go-related gene (hERG) potassium channel (Q12809 whole entry, looked up): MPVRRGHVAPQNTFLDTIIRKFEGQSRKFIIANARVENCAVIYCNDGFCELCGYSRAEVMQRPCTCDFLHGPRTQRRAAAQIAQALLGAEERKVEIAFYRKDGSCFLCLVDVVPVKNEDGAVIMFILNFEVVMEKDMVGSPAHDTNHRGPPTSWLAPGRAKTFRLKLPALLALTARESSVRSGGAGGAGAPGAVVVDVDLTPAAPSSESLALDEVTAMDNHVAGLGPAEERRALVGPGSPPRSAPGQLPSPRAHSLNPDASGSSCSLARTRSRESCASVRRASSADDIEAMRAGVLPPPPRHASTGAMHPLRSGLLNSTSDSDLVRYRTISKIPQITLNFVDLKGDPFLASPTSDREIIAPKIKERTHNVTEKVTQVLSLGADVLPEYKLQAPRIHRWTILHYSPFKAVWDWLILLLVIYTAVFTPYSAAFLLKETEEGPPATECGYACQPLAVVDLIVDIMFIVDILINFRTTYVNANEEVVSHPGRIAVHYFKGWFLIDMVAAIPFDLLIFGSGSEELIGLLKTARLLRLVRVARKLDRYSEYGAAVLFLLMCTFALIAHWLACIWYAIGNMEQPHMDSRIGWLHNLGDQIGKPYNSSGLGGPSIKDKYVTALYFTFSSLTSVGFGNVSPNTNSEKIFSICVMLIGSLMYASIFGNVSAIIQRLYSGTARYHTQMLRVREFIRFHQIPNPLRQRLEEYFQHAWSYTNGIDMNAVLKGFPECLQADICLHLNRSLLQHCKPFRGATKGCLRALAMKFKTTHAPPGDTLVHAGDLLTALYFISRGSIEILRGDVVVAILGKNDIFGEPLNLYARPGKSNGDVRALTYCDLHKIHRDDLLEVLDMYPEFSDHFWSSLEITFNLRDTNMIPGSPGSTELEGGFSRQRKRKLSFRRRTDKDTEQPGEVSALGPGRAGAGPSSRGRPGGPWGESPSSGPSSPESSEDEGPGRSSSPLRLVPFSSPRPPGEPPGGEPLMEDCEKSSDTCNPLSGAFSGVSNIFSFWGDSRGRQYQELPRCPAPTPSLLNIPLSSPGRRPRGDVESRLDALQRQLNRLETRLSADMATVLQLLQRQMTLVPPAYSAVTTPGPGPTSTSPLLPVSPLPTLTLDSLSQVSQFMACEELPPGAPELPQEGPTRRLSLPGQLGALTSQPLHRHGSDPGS
`COc1ccc(OC)c(-c2csc(NC(=O)Cc3ccccc3F)n2)c1`: the “hERG current change (%, negative = inhibition) at 1uM” value amounted to 12.9%. As to `NS(=O)(=O)c1cccc(NC(=S)NCc2ccccc2)c1`, the “hERG current change (%, negative = inhibition) at 1uM” value was 8.87%. As for `CCCSc1nc2c(c(=O)n1-c1ccc(OCC)cc1)SCC2`, the “hERG current change (%, negative = inhibition) at 1uM” value came out at 15.2%. `CC1CCN(S(=O)(=O)c2ccc3c(c2)CCN3C(=O)CCC(=O)O)CC1`: the “hERG current change (%, negative = inhibition) at 1uM” value was 11.4%.

Take `CS(=O)(=O)c1ccc(NS(=O)(=O)c2ccc3ccccc3c2)cc1`: the “hERG current change (%, negative = inhibition) at 1uM” value worked out at 12%. With `Clc1ccc(C2CC(c3cccs3)n3ncnc3N2)c(Cl)c1` (stereo not drawn), the “hERG current change (%, negative = inhibition) at 1uM” value amounted to 4.09%. For `CC(=O)Nc1ccc(S(=O)(=O)NC2=C(N3CCN(Cc4ccccc4)CC3)C(=O)c3ccccc3C2=O)cc1`, the “hERG current change (%, negative = inhibition) at 1uM” value is given as 15.3%. For the compound `CCOC(=O)N1CCC(NC(=O)c2cc(S(=O)(=O)N3CCCCC3)ccc2F)CC1`, the “hERG current change (%, negative = inhibition) at 1uM” value was 13.3%. In the case of `O=C(CN1CCOCC1)N/N=C/c1ccc(C(=O)O)cc1`, the “hERG current change (%, negative = inhibition) at 1uM” value is 7.67%. For `Cc1ccccc1-n1nc(C)c2cc(C(=O)NC3CC3)sc21`, the “hERG current change (%, negative = inhibition) at 1uM” value was determined as 2.92%.

In the case of `O=C(COC(=O)c1c[nH]c(=O)[nH]c1=O)Nc1ccccc1Br`, the “hERG current change (%, negative = inhibition) at 1uM” value came to 10.9%.

Consider `CN(C)c1nc(N)nc(-c2cccnc2)n1`, for which the “hERG current change (%, negative = inhibition) at 1uM” value was 2.93%.

On to `Fc1ccc(CNCCc2ccccc2F)cc1`, for which the “hERG current change (%, negative = inhibition) at 1uM” value was determined as 12.1%.

In the case of `Cc1ccc(N2C(=S)NC3c4cc(Cl)ccc4OC2(C)C3C(=O)N(C)C)cc1` (stereo not drawn), the “hERG current change (%, negative = inhibition) at 1uM” value was 17.9%. Regarding `Cc1ccc(S(=O)(=O)Cc2ccc(C(=O)N3CCC(C(N)=O)CC3)o2)cc1`, the “hERG current change (%, negative = inhibition) at 1uM” value came to 22.5%. To `COc1ccc(N2CCN(C(=O)C3Cc4ccccc4CN3C(=O)c3ccccc3)CC2)cc1` (stereo not drawn) belongs 9.95%. In the case of `CCOC(=O)N1CCN(C(=O)c2ccc(OC)c(OC)c2)CC1`, the “hERG current change (%, negative = inhibition) at 1uM” value amounted to 6.63%.

With `CN(C)CCCN(Cc1ccccc1)C(=S)Nc1ccc(SC(F)F)cc1`, the “hERG current change (%, negative = inhibition) at 1uM” value is recorded as -30.6%. `O=C(NNc1ccccc1F)C1CCC1`: the “hERG current change (%, negative = inhibition) at 1uM” value turned out to be 12.6%. To `Cc1nc(=O)c(-c2ccccc2)c(C)n1-c1ccc(S(N)(=O)=O)cc1` belongs -5.85%. Turning to `CCn1ncc(C(=O)Nc2ccc([N+](=O)[O-])cc2OC)c1C`, the “hERG current change (%, negative = inhibition) at 1uM” value is listed as 11.2%.

Take `CCOCCCNC(=O)CNC(=S)N(Cc1ccc(C)cc1)Cc1ccco1`: the “hERG current change (%, negative = inhibition) at 1uM” value was found to be 4.01%. As to `O=C1CC(Sc2ncccn2)C(=O)N1c1ccccc1C(F)(F)F` (stereo not drawn), the “hERG current change (%, negative = inhibition) at 1uM” value is 13%. As for `CCCCCCC(=O)N1CCCC(c2nc(-c3cccc(OC)c3)no2)C1` (stereo not drawn), the “hERG current change (%, negative = inhibition) at 1uM” value was -10.4%. Turning to `CC(Cn1cncn1)C(=O)N1CCN(S(=O)(=O)c2ccc(Cl)cc2)CC1` (stereo not drawn), the “hERG current change (%, negative = inhibition) at 1uM” value stood at 14%.

As to `O=C(c1cnccn1)N(c1ccccc1)C1(C(=O)NC2CCCCC2)CCCCC1`, the “hERG current change (%, negative = inhibition) at 1uM” value is 10.4%. As for `COc1ccc(N2CCN(C(=O)CSc3nnc(NC(=O)C4CC4)s3)CC2)cc1`, the “hERG current change (%, negative = inhibition) at 1uM” value came out at 8.83%. `COc1ccc(NS(=O)(=O)c2cn(C)cn2)cc1`: the “hERG current change (%, negative = inhibition) at 1uM” value stood at 11.7%. As to `CSCC[C@H](NC(=O)N1CCn2c1nc1ccccc12)C(=O)NCc1ccco1`, the “hERG current change (%, negative = inhibition) at 1uM” value was found to be 9.68%. In the case of `O=C(NC1CCCCC1)C(c1ccncc1)N(C(=O)c1csnn1)c1ccccc1F` (stereo not drawn), the “hERG current change (%, negative = inhibition) at 1uM” value stood at 6.21%. Turning to `CCN1CCN(c2ccc(N)cc2)CC1`, the “hERG current change (%, negative = inhibition) at 1uM” value amounted to 24%. As to `COc1ccc2c(c1)c(C(=O)N/N=C/c1cccc(Br)c1)c(C)n2C`, the “hERG current change (%, negative = inhibition) at 1uM” value is on record as -4.28%. With `CCC(CC)NC(=O)COc1ccc(OC)cc1C=O`, the “hERG current change (%, negative = inhibition) at 1uM” value came to 13.4%. Regarding `COC(=O)C1=NNC(C(=O)c2ccco2)C1c1ccccc1` (stereo not drawn), the “hERG current change (%, negative = inhibition) at 1uM” value was determined as 4.58%. Take `O=C(/C=C/c1ccc(F)cc1)N1CCN(c2ncccn2)CC1`: the “hERG current change (%, negative = inhibition) at 1uM” value is on record as 18.1%. For the compound `CN1CCN(C(=S)c2cn(CCOc3ccccc3)c3ccccc23)CC1`, the “hERG current change (%, negative = inhibition) at 1uM” value is listed as 7.29%. On to `CCN(CC)S(=O)(=O)c1cccc(NC(=O)COC(=O)c2n[nH]c(=O)c3ccccc23)c1`, for which the “hERG current change (%, negative = inhibition) at 1uM” value is listed as 14.5%. Regarding `Cn1c(=O)[nH]c(=O)c2c1nc(Br)n2CCCO`, the “hERG current change (%, negative = inhibition) at 1uM” value was found to be 11.8%. `CCc1ccc(NC(=O)Nn2cnnc2)cc1`: the “hERG current change (%, negative = inhibition) at 1uM” value was 10.4%.

Regarding `CC(=O)c1ccc(NC(=O)CCCN2C(=O)C(c3ccccc3)Oc3cccnc32)cc1` (stereo not drawn), the “hERG current change (%, negative = inhibition) at 1uM” value is 6.1%. To `Cc1cc(NC(=O)/C(C#N)=C/c2ccco2)n(-c2ccccc2)n1` belongs 8.19%; to `O=C1CN=C(c2cccc(Br)c2)c2cc(Br)ccc2N1`, 0.318%; to `Cc1ccccc1NC(=O)C1c2ccccc2Oc2ccccc21`, 20.8%. Regarding `COc1ccc(CC(=O)N(C)CC(=O)Nc2ccccc2SC)cc1`, the “hERG current change (%, negative = inhibition) at 1uM” value was found to be 13%. Turning to `CN(c1ncnc(N)c1[N+](=O)[O-])C1CCCCC1`, the “hERG current change (%, negative = inhibition) at 1uM” value was 12.5%.
